# From the BET-seq Pho4 binding data (Le et al. 2018)
# The list shows a part of the results. Values were computed here from the reads of four pooled replicates and scatter widely.
# Target: T1, Pho4 (S. cerevisiae) (UniProt P07270)
# T1 sequence: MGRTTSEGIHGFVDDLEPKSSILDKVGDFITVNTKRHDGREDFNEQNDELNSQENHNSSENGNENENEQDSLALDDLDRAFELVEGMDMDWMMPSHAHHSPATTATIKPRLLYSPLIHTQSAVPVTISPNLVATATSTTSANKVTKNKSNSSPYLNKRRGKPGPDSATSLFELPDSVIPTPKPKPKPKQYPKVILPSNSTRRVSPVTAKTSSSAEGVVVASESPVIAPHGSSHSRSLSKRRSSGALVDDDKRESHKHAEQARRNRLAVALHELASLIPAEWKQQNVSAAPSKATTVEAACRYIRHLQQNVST
# Assay: relative binding free energy (BET-seq); higher = weaker binding
# Conditions: reference: library average
row,Sequence,relative binding free energy
1,CTCTGCACGTGTTGGG,-0.12 kcal/mol
2,GCGATCACGTGATGGT,0.37 kcal/mol
3,TGTAACACGTGAGCAG,0.23 kcal/mol
4,TCATTCACGTGAAGGG,0.23 kcal/mol
5,CGTGCCACGTGAGGGA,0.17 kcal/mol
6,CGAAGCACGTGGTATT,-0.11 kcal/mol
7,TTCGTCACGTGGGCGA,-0.02 kcal/mol
8,TCTAGCACGTGGTTTT,-0.07 kcal/mol
9,AGTAACACGTGCAGGG,0.02 kcal/mol
10,TCAGGCACGTGTGGTG,-0.16 kcal/mol
11,TAGTTCACGTGGCCTG,0.12 kcal/mol
12,GGGTTCACGTGCAAGT,0.27 kcal/mol
13,TCGGTCACGTGAGGTT,0.29 kcal/mol
14,GAGATCACGTGGCGGG,0.15 kcal/mol
15,AAGATCACGTGGGGAT,0.06 kcal/mol
16,ATTGACACGTGAATTT,0.36 kcal/mol
17,GTAAACACGTGGTGGC,-0.06 kcal/mol
18,ACTTTCACGTGAATGG,0.4 kcal/mol
19,TGGGCCACGTGGTGGG,-0.07 kcal/mol
20,TTGGGCACGTGGTGCA,-0.13 kcal/mol
21,TTTGTCACGTGGCGCT,-0.02 kcal/mol
22,ATCTACACGTGAGGTG,0.27 kcal/mol
23,CTGTACACGTGCAGGT,0.06 kcal/mol

row,Sequence,relative binding free energy
1,TATATCACGTGTGGCG,0.18 kcal/mol
2,ATTGGCACGTGCCGGT,-0.15 kcal/mol
3,CGTTGCACGTGGGGTG,-0.2 kcal/mol
4,TATAACACGTGAGTTT,0.15 kcal/mol
5,AGTGTCACGTGTTTTT,0.11 kcal/mol
6,TGGGGCACGTGGGGTG,-0.31 kcal/mol
7,ATTATCACGTGCGGTA,0.24 kcal/mol
8,GGTGTCACGTGTGGCA,0.18 kcal/mol
9,TATTCCACGTGATGTG,0.08 kcal/mol
10,CGGTGCACGTGGGTGG,-0.17 kcal/mol
11,ATTAGCACGTGCTGTA,-0.16 kcal/mol
12,TGTCGCACGTGAATTT,0.44 kcal/mol
13,AATTGCACGTGCGGGG,-0.08 kcal/mol
14,TATTGCACGTGAGAGA,0.22 kcal/mol
15,TGGTCCACGTGTTAAG,-0.07 kcal/mol
16,TAGTTCACGTGATTTG,0.33 kcal/mol
17,AATTTCACGTGGACTG,0.18 kcal/mol
18,TGTCGCACGTGGCCTT,0 kcal/mol
19,AGGGACACGTGTTTAA,0.15 kcal/mol
20,GACCGCACGTGGGTGG,-0.19 kcal/mol
21,ATGTGCACGTGGCTGT,-0.08 kcal/mol
22,CTGAGCACGTGGTTAG,-0.24 kcal/mol
23,TAGTACACGTGGTTGG,0.08 kcal/mol

row,Sequence,relative binding free energy
1,AGTGTCACGTGAGGTC,0.12 kcal/mol
2,GTATGCACGTGGCTTG,-0.12 kcal/mol
3,AGGTTCACGTGTAGGC,0.32 kcal/mol
4,TTTGGCACGTGGGGAT,-0.07 kcal/mol
5,TGATTCACGTGTAAGC,0.52 kcal/mol
6,TTTAACACGTGTTAGG,-0.06 kcal/mol
7,GAGTTCACGTGGTTCG,0.17 kcal/mol
8,AATAGCACGTGTGTGC,-0.07 kcal/mol
9,ATATTCACGTGGAGAG,0.11 kcal/mol
10,GTACTCACGTGTGTGG,0.2 kcal/mol
11,ATGTACACGTGCGGGT,0.06 kcal/mol
12,TTCGTCACGTGGTGAA,0 kcal/mol
13,TTCATCACGTGTGGTG,0.14 kcal/mol
14,TGTGGCACGTGCCCGG,-0.25 kcal/mol
15,GGGTCCACGTGCGTAG,0 kcal/mol
16,AGATTCACGTGTGGCG,0.21 kcal/mol
17,ATAGACACGTGTGAAG,0.1 kcal/mol
18,GTGGTCACGTGTGCAA,0.16 kcal/mol
19,TGGTGCACGTGGGTGA,-0.21 kcal/mol
20,TAGGGCACGTGTTCGT,-0.19 kcal/mol
21,TGATGCACGTGGGAAG,0.04 kcal/mol
22,TCGTACACGTGGTTTG,0.06 kcal/mol
23,ATGGCCACGTGTTGTA,-0.02 kcal/mol

row,Sequence,relative binding free energy
1,TTGCTCACGTGTGGCG,0.21 kcal/mol
2,GGGGCCACGTGTTCGT,-0.1 kcal/mol
3,GGAGGCACGTGATATT,0.15 kcal/mol
4,GTAAGCACGTGTTTTA,-0.04 kcal/mol
5,AGCGGCACGTGTAACG,0.21 kcal/mol
6,AGATGCACGTGGTAAT,-0.02 kcal/mol
7,GTGGGCACGTGCGGGT,-0.07 kcal/mol
8,ACGGTCACGTGGGTGT,-0.03 kcal/mol
9,CGCGGCACGTGTCGGG,0.05 kcal/mol
10,TTTCGCACGTGATTGA,0.07 kcal/mol
11,GGGGACACGTGGGGTC,-0.1 kcal/mol
12,TGCCTCACGTGGGTTG,-0.05 kcal/mol
13,GGTTTCACGTGAGTTA,0.47 kcal/mol
14,ATGGTCACGTGTGACG,0.1 kcal/mol
15,GTATACACGTGAGTGG,0.21 kcal/mol
16,CTAAGCACGTGGTGTA,-0.15 kcal/mol
17,GTTGTCACGTGGTCTT,0.14 kcal/mol
18,TATGACACGTGAGGAT,0.29 kcal/mol
19,GCAGGCACGTGTTGGA,-0.06 kcal/mol
20,TAGATCACGTGGGTTG,-0.06 kcal/mol
21,TGTTACACGTGTATAC,0.14 kcal/mol
22,AGAGGCACGTGTGAGT,0.01 kcal/mol
23,TCATTCACGTGGTGGT,0.28 kcal/mol

row,Sequence,relative binding free energy
1,AGTTTCACGTGCGGAG,0.24 kcal/mol
2,CAGGTCACGTGTTTAG,0.27 kcal/mol
3,GCTAGCACGTGGAAGT,0.17 kcal/mol
4,AGGTGCACGTGTGCGG,0.05 kcal/mol
5,GTGAGCACGTGCATGT,-0.08 kcal/mol
6,GAGAACACGTGATGGG,0.27 kcal/mol
7,AGGGACACGTGGCGGC,-0.02 kcal/mol
8,ATTGACACGTGATTGG,0.01 kcal/mol
9,TGGTGCACGTGTCAGG,-0.05 kcal/mol
10,GTGGTCACGTGGGTGG,0.07 kcal/mol
11,AAGTGCACGTGTTTGA,-0.13 kcal/mol
12,AACGGCACGTGTGTAG,-0.11 kcal/mol
13,TATTTCACGTGGAGTA,0.19 kcal/mol
14,GGGACCACGTGGGGGG,-0.28 kcal/mol
15,GTGACCACGTGGTTGT,-0.07 kcal/mol
16,AAGTGCACGTGGAGAA,0.07 kcal/mol
17,TAGTCCACGTGTCGGT,0.06 kcal/mol
18,GCATTCACGTGGGATG,0.26 kcal/mol
19,CGTAGCACGTGGGATG,-0.24 kcal/mol
20,ATAGTCACGTGGTGGT,-0.13 kcal/mol
21,GTCTCCACGTGAGGTT,0.35 kcal/mol
22,ATAATCACGTGGAGGT,0.03 kcal/mol
23,TTTAGCACGTGGCCGG,-0.09 kcal/mol
